In PubChem BioAssay AID624296 (National Center for Advancing Translational Sciences (NCATS), 2012):
Among all 350,000 compounds or so, about 9,900 (2.8%) were called active. The shares of active, inactive and inconclusive entries below differ from those in the screen. Calls follow the shape of the dose curve; as a rule, active = well fitted activation curve with a large enough effect; inconclusive = small, poorly fitted or top-dose-only effect; inactive = no such curve, though single readings can be large or run the other way. No potency is given beside an inconclusive call; the fits are too rough.

Experiment: A quantitative high throughput screen for small molecules that induce DNA re-replication in MCF 10a normal breast cells. Also: nearly all actives have a fitted effect of over 50% in size.
Conditions: MCF 10A DNA re-replication, Hoechst nuclear intensity, 48 h; series mostly up to 46.1 µM
Potency is read from the fitted curve at half-maximal effect; tags tell the direction and shape of the fitted curve.

Compound	Potency
CC(=O)c1ccc(S(=O)(=O)NCCC(=O)OCC(=O)NCCc2ccccc2)cc1	inconclusive [activator, full curve, poor fit]
CN(C(=O)C1CCC(=O)N(CCc2ccc(Cl)cc2)C1)C1CCOCC1 (centres undefined)	inactive
CCOC(=O)c1ccccc1-n1c(C)cc(C2N=C(N)Nc3nc4ccccc4n32)c1C (centres undefined)	inconclusive [activator, single point]
Cc1cc(=O)[nH]c(SCC(=O)N(CCC#N)c2ccccc2)c1C#N	inactive
CCCC(C(=O)NC1CCCC1)N(Cc1ccc(F)cc1)C(=O)c1snc(C(N)=O)c1N (centres undefined)	inactive
C[C@]12C=C[C@H](O)CC1=CCC1C2CC[C@@]2(C)C1CCC21OCCO1 (some centres undefined)	active: 20.6 µM
Cc1cc(C(=O)COC(=O)c2cc(O)c3ccccc3c2O)c(C)n1CC1CCCO1 (centres undefined)	inconclusive [activator, single point]
COc1cc(/C=C/C(=O)N(C)CC(=O)Nc2ccccc2SC)cc(OC)c1OC	inactive
CCN(CC(=O)Nc1ccc(NC(C)=O)cc1)C(=O)CCCSc1nc2ccccc2[nH]1	inactive
Oc1ccccc1/C=N/Nc1ccnc(SCc2ccccc2)n1	inactive
CC(C)c1nc2sc3c(SCCN(C)C)ncnc3c2c2c1CCC2	inactive
COC(=O)c1cn(CCOc2ccccc2OC)c2ccccc12	inconclusive [activator, partial curve]
O=C(N/N=C/c1cccc2ccccc12)c1ccccc1Cl	inactive
CCOc1ccc(C(=S)NC2CCCCC2)cc1OCC	inactive
CCSc1nc2ccccc2n1C(=O)/C=C/c1ccc(OC)c(OC)c1	active: 4.11 µM
CCOC(=O)c1sc(NC(=O)c2ccc(OC)cc2)nc1C	inactive
CC(C)(C)OC(=O)N(Cc1ccccc1)Cc1ccc(OCc2cccc(NC(=O)C3CC3)c2)cc1	inconclusive [activator, partial curve, poor fit]
N#C/C(=C\c1cn(CCOc2ccccc2)c2ccccc12)C(=O)NCC1CCCO1 (centres undefined)	inactive
Cc1cccc(-c2nc(NCCCN3CCOCC3)c3ccccc3n2)c1	inconclusive [activator, single point]
Cc1c(NC(=S)N2CCN(c3ccc(F)cc3)CC2)c(=O)n(-c2ccccc2)n1C	inconclusive [activator, partial curve, poor fit]
O=[N+]([O-])c1ccccc1NCc1c(O)ccc2ccccc12	inconclusive [activator, single point]
COC(=O)c1c(NC(NC(C)=O)C(Cl)(Cl)Cl)sc2c1CCCC2 (centres undefined)	inconclusive [activator, single point]
CN(CC(=O)Nc1cccc(S(=O)(=O)N2CCOCC2)c1)CC(=O)Nc1ccc(Cl)c(C(F)(F)F)c1	inactive
O=C(Cn1[nH]c(=O)c2ccccc2c1=O)OCC(=O)c1ccccc1	inactive
CCOC(=O)c1cc(-c2ccc(N)cc2)sc1N	inconclusive [activator, partial curve, poor fit]

Compound	Potency
O=C(NC1=NCCS1)c1ccc(Cl)cc1	inconclusive [activator, full curve, poor fit]
Cc1nc(Nc2ccc(Cl)c(Cl)c2)sc1C(/C=C/c1ccc2c(c1)OCO2)=NNc1ccc([N+](=O)[O-])cc1[N+](=O)[O-]	inactive
CCCc1[nH]nc2c1C(c1c(C)nn(-c3ccccc3)c1Cl)C(C#N)=C(N)O2 (centres undefined)	inconclusive [activator, full curve, poor fit]
O=C(c1cc(-c2ccccc2)nn1-c1ccccc1)N1CCN(S(=O)(=O)c2ccc(F)cc2)CC1	inconclusive [activator, full curve, poor fit]
O=C(CN1C(=O)S/C(=C\c2cccc(Cl)c2)C1=O)NC1C=CS(=O)(=O)C1 (centres undefined)	active: 9.2 µM
O=C(Cn1cc(COc2ccccc2[N+](=O)[O-])nn1)c1ccc(O)cc1	inconclusive [activator, single point]
CCN(CC(=O)Nc1ccc(OC)cc1)C(=O)c1ccc2c(c1)NC(=O)C(C)S2 (centres undefined)	inactive
CNC(=O)c1c(O)c2cccc3c2n(c1=O)CC3	inconclusive [activator, single point]
Cc1ccc(-c2nc(CSc3nc4ccccc4c(=O)n3C)cs2)cc1	inconclusive [activator, single point]
O/N=C/c1ccc2ccccc2c1	inconclusive [activator, full curve, poor fit]
CCc1nnc(SCC(=O)Nc2ccccc2Cl)nc1CC	inconclusive [activator, partial curve, poor fit]
N#C/C(=N\Nc1ccccc1F)c1nc(-c2ccccc2)cs1	inconclusive [activator, single point]
O=C(COC(=O)/C=C/c1ccccc1Cl)NC(=O)Cc1ccccc1	inactive
Nc1ccc(Oc2cc(N)cc(Oc3ccccc3)c2)cc1	inconclusive [activator, partial curve, poor fit]
COc1ccc(C(=O)Nc2nnc(-c3ccco3)s2)cc1	inactive
COc1ccc(OC)c(/C=C/c2ccnc3ccccc23)c1	active: 5.17 µM
Nc1cc2nc3ccccc3oc-2cc1=O	inconclusive [activator, single point]
O=C(NCc1ccco1)c1cc2sccc2n1Cc1ccc(F)cc1	inconclusive [activator, partial curve, poor fit]
Cc1ccc(NC(=O)Cn2c(O)c(N=NC(N)=S)c3ccccc32)cc1	inconclusive [activator, single point]
CCN(CC(=O)Nc1ccccc1Br)Cc1nc2ccccc2c(=O)[nH]1	inactive
COC(=O)CSc1snnc1-c1ccc(Cl)c(Cl)c1	inconclusive [activator, full curve, poor fit]
C1=C(c2ccc(-c3ccccc3)cc2)Nc2ncnn2C1c1ccco1 (centres undefined)	inactive
Cc1nc(N2CCCCC2C)c2c(C)c(C(=O)Nc3cccc(C(F)(F)F)c3)sc2n1 (centres undefined)	active: 18.4 µM
CC1=C(C)CS(=O)N(c2ccc(S(N)(=O)=O)cc2)C1 (centres undefined)	inconclusive [activator, single point]
CN(CC(=O)Nc1ccc(N2CCOCC2)cc1)CC(=O)Nc1cccc(C#N)c1	inactive

Compound	Potency
COc1ccc(NC(=O)C(CC(C)C)NC(=O)c2ccccc2C)cn1 (centres undefined)	inactive
COc1cccc(/C=C/C(=O)OCC(=O)N(C)CC(=O)Nc2ccccc2Cl)c1OC	inactive
O=C(O)COCC(=O)N1CCCN(c2nccc(C(F)(F)F)n2)CC1	inactive
CCN(CC(=O)Nc1ccc(NC(C)=O)cc1)C(=O)CCN1C(=O)C2CC=CCC2C1=O (centres undefined)	inactive
CN(C)C(CNC(=O)c1cc(S(=O)(=O)N(C)Cc2ccccc2)ccc1Cl)c1ccco1 (centres undefined)	inconclusive [activator, single point]
CSc1nsc(SC)c1C(=O)NC(=O)Nc1cccnc1	inconclusive [activator, partial curve, poor fit]
c1ccc(Cn2nnc3c(N4CCCCCC4)ncnc32)cc1	inconclusive [activator, single point]
CN(C)S(=O)(=O)c1ccc(C(=O)Nc2nnc(-c3cccs3)o2)cc1	inconclusive [activator, partial curve, poor fit]
CS(=O)(=O)Nc1cccc(C2=NN(C(=O)c3cccc(F)c3)C(c3cccs3)C2)c1 (centres undefined)	inconclusive [activator, single point]
O=C(Nc1ccc2c(c1)OCO2)c1cc(-c2ccc(O)cc2)on1	active: 10.3 µM
Cc1cccc(C(=O)NNC(=O)c2c(O)c3ccccc3n(C)c2=O)c1	inconclusive [activator, partial curve, poor fit]
CC(=O)N1CCc2cc(S(=O)(=O)CCC(=O)Nc3cccc(F)c3)ccc21	inconclusive [activator, single point]
CCOC(=O)c1cnc2c(C)c(C)ccc2c1Nc1ccc(S(=O)(=O)Nc2ncccn2)cc1	inactive
C[C@@H](NCCCc1cccc(C(F)(F)F)c1)c1cccc2ccccc12	active: 21.1 µM
Cc1ccc(S(=O)(=O)Nc2ccc3ccccc3c2[N+](=O)[O-])cc1	active: 18.4 µM
COc1ccc(Br)cc1CN1CCSCC1	inactive
C=CCN=C1S/C(=C/c2cccc([N+](=O)[O-])c2)C(=O)N1CC=C	inactive
O=C(Nc1cc(S(=O)(=O)Nc2ccccc2Cl)ccc1O)c1ccc(F)cc1F	inconclusive [activator, partial curve, poor fit]
CCN(CC)CCn1c(C)nc2ccccc21	inactive
Cc1ccc2oc(C(=O)N(Cc3ccncc3)CC3CCCO3)c(C)c2c1 (centres undefined)	inconclusive [activator, partial curve, poor fit]
Cc1ccc(S(=O)(=O)N2[C@@H](c3ccccc3)C(C(=O)O)=CC[C@H]2c2ccc(C(C)C)cc2)cc1	inactive
CCCC/C=C/C(NC(=O)CCc1ccccc1)c1ccccc1 (centres undefined)	inconclusive [activator, single point]
CCC1(C)Cc2c(sc3nc(SC)[nH]c(=S)c23)CO1 (centres undefined)	inconclusive [activator, partial curve, poor fit]
O=C(O)/C=C/C(=O)Nc1ccc(N2CCOCC2)nc1N1CCOCC1	inconclusive [activator, single point]
